Experimental data published in PubChem BioAssay AID1030 (National Center for Advancing Translational Sciences (NCATS), 2008).
The campaign covered roughly 220,000 compounds. About 16,000 (7.3%) were called active. The shares of active, inactive and inconclusive entries below differ from those in the screen. The call rests on the fitted dose curve; in most records, active means well fitted inhibition curve with a large enough effect (not every such curve was filed as active); inconclusive means small, poorly fitted or top-dose-only effect, or another doubt; inactive means no such curve, though single readings can be large or run the other way. Potencies of inconclusive entries are left out as doubtful fits.

Molecular target: Aldehyde dehydrogenase 1A1 (Homo sapiens) (UniProt P00352)
Assay: qHTS Assay for Inhibitors of Aldehyde Dehydrogenase 1 (ALDH1A1);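 on activity, negative = inhibition: plate controls were no enzyme wells and a reference inhibitor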
Settings: Purified ALDH1A1, NADH fluorescence, propionaldehyde substrate; series mostly up to 75.3 µM; activity, negative = inhibition: at the top concentration
Potency means the concentration at half of the fitted maximal effect; tags describe the fitted curve by direction and shape.

Sequence of UniProt P00352 (P00352 whole entry, looked up): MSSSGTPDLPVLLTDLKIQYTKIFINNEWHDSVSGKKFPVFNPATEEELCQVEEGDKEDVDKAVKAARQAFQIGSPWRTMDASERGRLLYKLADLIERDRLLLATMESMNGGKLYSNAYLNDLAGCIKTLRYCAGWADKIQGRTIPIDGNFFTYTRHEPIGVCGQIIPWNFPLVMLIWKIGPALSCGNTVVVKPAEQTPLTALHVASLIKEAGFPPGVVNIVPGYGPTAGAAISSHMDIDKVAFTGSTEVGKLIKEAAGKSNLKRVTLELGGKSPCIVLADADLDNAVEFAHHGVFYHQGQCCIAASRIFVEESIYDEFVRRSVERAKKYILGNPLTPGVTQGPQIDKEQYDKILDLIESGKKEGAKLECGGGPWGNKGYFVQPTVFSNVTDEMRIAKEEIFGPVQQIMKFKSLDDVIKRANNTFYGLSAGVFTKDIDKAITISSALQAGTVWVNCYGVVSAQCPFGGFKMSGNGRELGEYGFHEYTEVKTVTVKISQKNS

Structure (SMILES)	Potency	activity, negative = inhibition
COCCNC(=O)/C(C#N)=C/c1ccc(OC(=O)c2cccs2)c(OC)c1	inconclusive [inhibitor, single point]	–
Cc1cc(C)c(-c2cc(C(F)(F)F)no2)c(=O)[nH]1	inconclusive [inhibitor, partial curve]	–
COC(=O)CSc1nc2ccccc2nc1SCC(=O)OC	inconclusive [inhibitor, single point]	–
O=c1cc(CO)oc(C(Nc2ccccn2)c2ccc(C(F)(F)F)cc2)c1O (stereo unspecified)	inconclusive [inhibitor, single point]	–
CC(C)(C)C(=O)NC(=S)NNC(=O)c1sc2ccccc2c1Cl	inconclusive [inhibitor, single point]	–
O=C(O)C1C2C=CC(O2)C1C(=O)Nc1ccc(S(=O)(=O)N2CCc3ccccc32)cc1 (stereo unspecified)	active: 10 µM	–
CCc1nnc(NC(=O)c2ccc(S(=O)(=O)N(CC)Cc3ccccc3)cc2)o1	active: 17.8 µM	–
CCN(CC)CC[n+]1ccc2c(C)c3[nH]c4ccccc4c3c(C)c2c1	–	inactive: 1.65% [at 13.5 µM]
CN(C)S(=O)(=O)c1cc(NC(=O)c2cc(=O)[nH]c3ccccc23)ccc1Cl	inconclusive [inhibitor, single point]	–
Cc1cnc(CNc2nc(-c3ccccc3C(F)(F)F)nc3ccccc23)cn1	inconclusive [inhibitor, single point]	–
CCN(CC)S(=O)(=O)c1cccc(-c2nnc(SC(C)C(=O)NCCC3=CCCCC3)o2)c1 (stereo unspecified)	inconclusive [inhibitor, single point]	–
CNc1oc(-c2ccc(C)cc2)nc1P(=O)(c1ccccc1)c1ccccc1	inconclusive [inhibitor, partial curve]	–
CN1CCC(=NNC(=O)CN(c2ccc(Oc3ccccc3)cc2)S(C)(=O)=O)CC1	inconclusive [inhibitor, single point]	–
Cc1ccc(C)c(C(=O)Cn2ncc(Cl)c(Cl)c2=O)c1	active: 14.1 µM	–
Cc1cc(C)cc(OCC(=O)OCC(=O)NCc2ccco2)c1	active: 35.5 µM	–
O=C(Nc1nc2ccc(Cl)cc2s1)[C@@H]1CCCN1C(=O)c1cccs1	active: 25.1 µM	–
Cc1ccc(CNc2oc(-c3ccco3)nc2C#N)cc1	inconclusive [inhibitor, partial curve]	–
CCN1/C(=C/c2cc[n+](C)cc2)C=Cc2cc(C)ccc21	inconclusive [inhibitor, single point]	–
COCCNC(=O)c1ccc(-n2c(SCc3cccnc3)nc3ccccc3c2=O)cc1	inconclusive [inhibitor, single point]	–
Cc1ccc(C(=O)N/N=C/c2cc(C)n(-c3ccc(Br)cc3)c2C)cc1[N+](=O)[O-]	active: 10 µM	–
CCOC(=O)C1=NN(c2ccccc2)C(=O)/C1=C\c1ccc(N(C)C)cc1	active: 1.58 µM	–
O=C(NC(=S)N1CCN(C(c2ccccc2)c2ccccc2)CC1)c1ccc(S(=O)(=O)N2CCOCC2)cc1	–	inactive: 1.8%
COc1ccc(OC)c(NC(=O)CSC2=C(C#N)C(c3ccco3)C3=C(CCCC3=O)N2)c1 (stereo unspecified)	inconclusive [inhibitor, partial curve]	–
O=C(CNCc1cccnc1)Nc1cc(C(F)(F)F)ccc1N1CCOCC1	inconclusive [inhibitor, single point]	–

Structure (SMILES)	Potency	activity, negative = inhibition
Cc1csc(SCC(=O)Nc2sc3c(c2C#N)CCC3)n1	inconclusive [inhibitor, single point]	–
O=C(NCCCCNC(=O)c1ccc(Cl)s1)c1ccc(Cl)s1	–	inactive: 4.34%
COCCN=C1NN=C(c2cc(C)n(CC3CCCO3)c2C)CS1 (stereo unspecified)	inconclusive [inhibitor, partial curve]	–
Cc1cc2c3nonc3ccc2n1-c1ccccc1	inconclusive [inhibitor, single point]	–
Cc1ccccc1-n1nnnc1SCc1ncc(-c2ccccc2)o1	active: 10 µM	–
CC1(C)NC(=O)N(CCCCOc2cccc(C(F)(F)F)c2)C1=O	–	inactive: 3.86%
c1nc(N2CCC3(CC2)OCCO3)c2c3c(sc2n1)CCCC3	inconclusive [inhibitor, single point]	–
O=C(Oc1ccc(Cl)c2cccnc12)N1CCOCC1	–	inactive: -5.39%
CSc1nc(N)c2c(C)c(C)sc2n1	–	inactive: 5.49%
CCCCCCCNC1=CC(=O)CC(c2ccccc2)C1 (stereo unspecified)	inconclusive [inhibitor, single point]	–
CCC1CCCCN1C(=O)COC(=O)c1cc2ccccc2cc1O (stereo unspecified)	inconclusive [inhibitor, single point]	–
Brc1ccc2[nH]c3nc(SCCN4CCOCC4)nnc3c2c1	inconclusive [inhibitor, full curve]	–
CCOC(=O)CSc1c(-c2cccs2)[nH]c2ccccc12	inconclusive [inhibitor, single point]	–
Cc1cc([N+](=O)[O-])cnc1N1CCOCC1	–	inactive: -3.03%
CC(C)(C)c1cc(=O)n2c(nc3ccccc32)[nH]1	inconclusive [inhibitor, single point]	–
C[C@@H](CN1c2ccccc2Sc2ccccc21)N(C)C	–	inactive: -3.97% [at 20.9 µM]
COc1cc2c3c(c1OC)C1(C=CC(=O)C=C1)CC3N(C(=O)c1ccccc1)CC2 (stereo unspecified)	inconclusive [inhibitor, single point]	–
COC(=O)C(C)Sc1nc2c(c(=O)n(C)c(=O)n2C)n1CCC(C)C (stereo unspecified)	inconclusive [inhibitor, single point]	–
COC(=O)[C@@]1(Cc2ccc(OC)cc2)[C@@H]2[C@@H](CC(=O)[C@H]2CC(=O)C(=O)N(C)C)CN1C(=O)c1ccccc1	inactive	–
COc1ccccc1N1CCN(CC(O)COc2ccc3c(C)cc(=O)oc3c2)CC1 (stereo unspecified)	inconclusive [inhibitor, partial curve]	–
CC1=C2[C@@H]([C@H](C)CC[C@H]2/C=C(\C)C(=O)O)[C@H](O)C1	inconclusive [inhibitor, single point]	–
Cc1oc2cc3c(C(=O)N4CCCCC4)c(C)oc3cc2c1C(=O)N1CCCCC1	inconclusive [inhibitor, partial curve]	–
CCCC(C)NCC(=O)Nc1ccccc1-c1ccccc1 (stereo unspecified)	inconclusive [inhibitor, partial curve, poor fit]	–
O=C(NCCCn1ccnc1)c1ccc(N2CCCCCC2)c([N+](=O)[O-])c1	inconclusive [inhibitor, partial curve]	–

Structure (SMILES)	Potency	activity, negative = inhibition
Cc1ccc(NNC(=O)c2cccs2)cc1Cl	inconclusive [inhibitor, single point]	–
CCOc1ccc(CC(=O)Nc2c(C(=O)Nc3ccccc3)oc3ccccc23)cc1OCC	inconclusive [inhibitor, single point]	–
COc1cccc(Sc2ccccc2/C=N/NC(N)=O)c1	–	inactive: 12.2%
Fc1ccc(OCc2nn3c(Cn4nnc5ccccc54)nnc3s2)cc1	active: 22.4 µM	–
CN1CCCN(C(=O)/C=C/c2ccc(Cl)cc2Cl)CC1	inconclusive [inhibitor, single point]	–
Cc1occc1C(=O)N1CCN(C(c2ccccc2)c2ccccc2)CC1	inconclusive [inhibitor, partial curve]	–
CC(C)(C)C(=O)CC1(O)C(=O)N(Cc2ccc(Cl)cc2)c2ccccc21 (stereo unspecified)	inconclusive [inhibitor, single point]	–
COc1ccc(Cn2ccnc2)cc1[N+](=O)[O-]	inconclusive [inhibitor, single point]	–
COc1ccc(C2CC(=O)C3=C(C2)Nc2ccccc2N(C(=O)C2CC2)C3c2cccnc2)cc1OC (stereo unspecified)	active: 14.1 µM	–
Cn1c(=O)c(-c2cccc(C#N)c2)nc2cnc(Oc3ccccc3)nc21	inconclusive [inhibitor, partial curve]	–
CCc1c(C)c2c(C)nn(-c3ccccc3)c2oc1=O	inconclusive [inhibitor, single point]	–
Clc1ccc(-c2nnc(CNC3CC3)o2)cc1	–	inactive: 7.92%
Cc1ccc(NC(=O)NC(=O)CSc2nnc(-c3ccc(Cl)cc3Cl)n2N)c(C)c1	inconclusive [inhibitor, single point]	–
CCOC(=O)N1CCN(C2CC(=O)N(c3ccc(Cl)c(Cl)c3)C2=O)CC1 (stereo unspecified)	active: 14.1 µM	–
CCN=C1S/C(=C\c2cn(C(C)=O)nc2-c2ccccc2)C(=O)N1CC	inconclusive [inhibitor, single point]	–
COc1cc2c(cc1NC(=O)c1ccccc1F)CCCC2	–	inactive: -8.44%
COc1cc(CNn2c(C)n[nH]c2=S)cc(Cl)c1OCc1ccccc1	active: 28.2 µM	–
COc1ccc(N2CCN(C(=O)CSc3nc4[nH]ncc4c(=O)n3-c3ccc(Br)cc3)CC2)cc1	inconclusive [inhibitor, single point]	–
CC1(C)CC(=O)C2=C(C1)OC(N)=C(C#N)C2c1ccccc1[N+](=O)[O-] (stereo unspecified)	inconclusive [inhibitor, single point]	–
CCCCNC(=O)c1onc(CCl)c1C(=O)OC	active: 14.1 µM	–
CCOC(=O)c1cnc(SC)nc1Oc1cccc(NS(=O)(=O)c2ccc(C)cc2)c1	–	inactive: 5.54%
Cc1ccc(NC(=O)C2CCN(S(=O)(=O)c3ccc(F)cc3)CC2)cc1	–	inactive: 5.12%
CN1C(=O)NC(c2ccccc2)C2=C1CN(Cc1ccco1)C2=O (stereo unspecified)	inconclusive [inhibitor, single point]	–
